Measurements: the supplement of paper PMC8728848
Some of the results follow.

Assays:
Assay in all cases: glycan array binding signal (z-score within array); higher = stronger binding
Settings in all cases: glycan notation: IUPAC condensed, linker removed
[1] = biological target: GlcNAc(b1-3)Gal(b1-4)Glc
In short: (§1)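 The binding signal is a Z-score computed within each array. Data were drawn from 3228 arrays in the Consortium for Functional Glycomics database, restricted to those with a known protein sequence. Scores were averaged over arrays of the same protein sequence at different concentrations or buffers, and over linkers, and negative values can be taken as non-binding.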

[2] = biological target: GlcNAc(b1-3)Gal(b1-4)GlcNAc
In short: as §1

[3] = biological target: GlcNAc(b1-3)Gal(b1-4)GlcNAc(b1-2)Man(a1-3)[GlcNAc(b1-3)Gal(b1-4)GlcNAc(b1-2)Man(a1-6)]Man(b1-4)GlcNAc(b1-4)GlcNAc
In short: as §1

[4] = biological target: GlcNAc(b1-3)Gal(b1-4)GlcNAc(b1-2)Man(a1-3)[GlcNAc(b1-3)Gal(b1-4)GlcNAc(b1-2)Man(a1-6)]Man(b1-4)GlcNAc(b1-4)[Fuc(a1-6)]GlcNAc
In short: as §1

[5] = biological target: GlcNAc(b1-3)Gal(b1-4)GlcNAc(b1-2)[GlcNAc(b1-3)Gal(b1-4)GlcNAc(b1-6)]Man(a1-6)[GlcNAc(b1-3)Gal(b1-4)GlcNAc(b1-2)Man(a1-3)]Man(b1-4)GlcNAc(b1-4)GlcNAc
In short: as §1

[6] = biological target: GlcNAc(b1-3)Gal(b1-4)GlcNAc(b1-3)Gal(b1-4)GlcNAc
In short: as §1

[7] = biological target: GlcNAc(b1-3)Gal(b1-4)GlcNAc(b1-3)Gal(b1-4)GlcNAc(b1-2)Man(a1-3)[GlcNAc(b1-3)Gal(b1-4)GlcNAc(b1-3)Gal(b1-4)GlcNAc(b1-2)Man(a1-6)]Man(b1-4)GlcNAc(b1-4)GlcNAc
In short: as §1

[8] = biological target: GlcNAc(b1-3)Gal(b1-4)GlcNAc(b1-3)Gal(b1-4)GlcNAc(b1-2)Man(a1-3)[GlcNAc(b1-3)Gal(b1-4)GlcNAc(b1-3)Gal(b1-4)GlcNAc(b1-2)Man(a1-6)]Man(b1-4)GlcNAc(b1-4)[Fuc(a1-6)]GlcNAc
In short: as §1

[9] = biological target: GlcNAc(b1-3)Gal(b1-4)GlcNAc(b1-3)Gal(b1-4)GlcNAc(b1-2)[GlcNAc(b1-3)Gal(b1-4)GlcNAc(b1-3)Gal(b1-4)GlcNAc(b1-6)]Man(a1-6)[GlcNAc(b1-3)Gal(b1-4)GlcNAc(b1-3)Gal(b1-4)GlcNAc(b1-2)Man(a1-3)]Man(b1-4)GlcNAc(b1-4)[Fuc(a1-6)]GlcNAc
In short: as §1

[10] = biological target: GlcNAc(b1-3)Gal(b1-4)GlcNAc(b1-3)Gal(b1-4)GlcNAc(b1-3)Gal(b1-4)GlcNAc(b1-2)Man(a1-3)[GlcNAc(b1-3)Gal(b1-4)GlcNAc(b1-3)Gal(b1-4)GlcNAc(b1-3)Gal(b1-4)GlcNAc(b1-2)Man(a1-6)]Man(b1-4)GlcNAc(b1-4)GlcNAc
In short: as §1

[11] = biological target: GlcNAc(b1-3)Gal(b1-4)GlcNAc(b1-3)Gal(b1-4)GlcNAc(b1-3)Gal(b1-4)GlcNAc(b1-2)Man(a1-3)[GlcNAc(b1-3)Gal(b1-4)GlcNAc(b1-3)Gal(b1-4)GlcNAc(b1-3)Gal(b1-4)GlcNAc(b1-2)Man(a1-6)]Man(b1-4)GlcNAc(b1-4)[Fuc(a1-6)]GlcNAc
In short: as §1

[12] = biological target: GlcNAc(b1-3)Gal(b1-4)GlcNAc(b1-3)Gal(b1-4)GlcNAc(b1-3)Gal(b1-4)GlcNAc(b1-2)[GlcNAc(b1-3)Gal(b1-4)GlcNAc(b1-3)Gal(b1-4)GlcNAc(b1-3)Gal(b1-4)GlcNAc(b1-6)]Man(a1-6)[GlcNAc(b1-3)Gal(b1-4)GlcNAc(b1-3)Gal(b1-4)GlcNAc(b1-3)Gal(b1-4)GlcNAc(b1-2)Man(a1-3)]Man(b1-4)GlcNAc(b1-4)[Fuc(a1-6)]GlcNAc
In short: as §1

[13] = biological target: GlcNAc(b1-3)Gal(b1-4)GlcNAc(b1-3)Gal(b1-4)GlcNAc(b1-3)Gal(b1-4)GlcNAc(b1-3)Gal(b1-4)GlcNAc(b1-2)Man(a1-3)[GlcNAc(b1-3)Gal(b1-4)GlcNAc(b1-3)Gal(b1-4)GlcNAc(b1-3)Gal(b1-4)GlcNAc(b1-3)Gal(b1-4)GlcNAc(b1-2)Man(a1-6)]Man(b1-4)GlcNAc(b1-4)GlcNAc
In short: as §1

[14] = biological target: GlcNAc(b1-3)Gal(b1-4)GlcNAc(b1-3)Gal(b1-4)GlcNAc(b1-3)Gal(b1-4)GlcNAc(b1-3)Gal(b1-4)GlcNAc(b1-2)Man(a1-3)[GlcNAc(b1-3)Gal(b1-4)GlcNAc(b1-3)Gal(b1-4)GlcNAc(b1-3)Gal(b1-4)GlcNAc(b1-3)Gal(b1-4)GlcNAc(b1-2)Man(a1-6)]Man(b1-4)GlcNAc(b1-4)[Fuc(a1-6)]GlcNAc
In short: as §1

[15] = biological target: GlcNAc(b1-3)Gal(b1-4)GlcNAc(b1-3)Gal(b1-4)GlcNAc(b1-3)Gal(b1-4)GlcNAc(b1-3)Gal(b1-4)GlcNAc(b1-2)[GlcNAc(b1-3)Gal(b1-4)GlcNAc(b1-3)Gal(b1-4)GlcNAc(b1-3)Gal(b1-4)GlcNAc(b1-3)Gal(b1-4)GlcNAc(b1-6)]Man(a1-6)[GlcNAc(b1-3)Gal(b1-4)GlcNAc(b1-3)Gal(b1-4)GlcNAc(b1-3)Gal(b1-4)GlcNAc(b1-3)Gal(b1-4)GlcNAc(b1-2)Man(a1-3)]Man(b1-4)GlcNAc(b1-4)[Fuc(a1-6)]GlcNAc
In short: as §1

[16] = biological target: GlcNAc(b1-3)Gal(b1-4)GlcNAc(b1-3)Gal(b1-4)GlcNAc(b1-3)GalNAc
In short: as §1

[17] = biological target: GlcNAc(b1-3)Gal(b1-4)GlcNAc(b1-3)GalNAc
In short: as §1

[18] = biological target: GlcNAc(b1-3)Gal(b1-4)GlcNAc(b1-3)[GlcNAc(b1-3)Gal(b1-4)GlcNAc(b1-3)]GalNAc
In short: as §1

[19] = biological target: GlcNAc(b1-3)Gal(b1-4)GlcNAc(b1-6)[Gal(b1-3)]GalNAc
In short: as §1

[20] = biological target: GlcNAc(b1-3)Gal(b1-4)GlcNAc(b1-6)[GlcNAc(b1-3)Gal(b1-3)]GalNAc
In short: as §1

[21] = biological target: GlcNAc(b1-3)Gal(b1-4)GlcNAc(b1-6)[GlcNAc(b1-3)]Gal(b1-4)GlcNAc
In short: as §1

[22] = biological target: GlcNAc(b1-3)GalNAc
In short: as §1

[23] = biological target: GlcNAc(b1-3)Man
In short: as §1

[24] = biological target: GlcNAc(b1-3)[GlcNAc(b1-4)][GlcNAc(b1-6)]GlcNAc
In short: as §1

[25] = biological target: GlcNAc(b1-3)[GlcNAc(b1-6)]Gal(b1-4)GlcNAc
In short: as §1

[26] = biological target: GlcNAc(b1-3)[GlcNAc(b1-6)]GalNAc
In short: as §1

[27] = biological target: GlcNAc(b1-4)Gal(b1-4)GlcNAc
In short: as §1

[28] = biological target: GlcNAc(b1-4)GlcNAc
In short: as §1

[29] = biological target: GlcNAc(b1-4)GlcNAc(b1-4)GlcNAc
In short: as §1

[30] = biological target: GlcNAc(b1-4)GlcNAc(b1-4)GlcNAc(b1-4)GlcNAc(b1-4)GlcNAc
In short: as §1

[31] = biological target: GlcNAc(b1-4)GlcNAc(b1-4)GlcNAc(b1-4)GlcNAc(b1-4)GlcNAc(b1-4)GlcNAc
In short: as §1

[32] = biological target: GlcNAc(b1-4)[GlcNAc(b1-6)]GalNAc
In short: as §1

[33] = biological target: GlcNAc(b1-6)Gal(b1-4)GlcNAc
In short: as §1

[34] = biological target: GlcNAc(b1-6)GalNAc
In short: as §1

[35] = biological target: GlcNAc6S(b1-3)Gal(b1-4)GlcNAc
In short: as §1

[36] = biological target: Kdn(a2-3)Gal(b1-3)GalNAc
In short: as §1

[37] = biological target: Kdn(a2-3)Gal(b1-3)GlcNAc
In short: as §1

B1: PX9961J-bvu-499-24-499 (Bacteroides vulgatus) (protein)
chain: LNTDPSTAVPSDDAIKNIDDAQVALNGIYRLASAHSYYGDNYLYYADCRGEDVQARINKGAGRRVSPYYFFDVTADDNFNITLVWNQPYKVIHQANSLIEKLDAGNAGNARPEEVARIKSEALAMRGLALFDLTRLFGMPYTLDNGASLGVPIEIQTTLEDHAPERNTVAQCYEQVLKDLNDALGGLTKEKHDAYMNYWSVKALLSRVYLYMNDNENALKCAEEVINDNGGIYRLFTHDEYPSVWGKDFNSESLFEFYFTMSEPSGGSGGEGAPMVYADNVKDWNNLILTKAYLDLLNEDPEDVRHVFPHLPENAVADTLPVAAKGQPKYLIKYPGKSGSVTDAVSTVNPQDNDLCILRLSEVYLNAAEAAFKIGNTEKALTYLNAIVTRANPAKSVTSADLSLERILKERRKELVGEGHAFFDYMRNGKSVDRSGGWHLTMPEDARVIAPSDPRVALPIPQTEIDANPNIVQNPR
With B1 the “glycan array binding signal (z-score)” value [1] was -0.492, the “glycan array binding signal (z-score)” value [2] was -0.048 and the “glycan array binding signal (z-score)” value [3] was -0.096. The “glycan array binding signal (z-score)” value [4] was -0.212, the “glycan array binding signal (z-score)” value [5] was 0.828 and the “glycan array binding signal (z-score)” value [6] was -0.674. The “glycan array binding signal (z-score)” value [7] was 0.336, the “glycan array binding signal (z-score)” value [8] was 0.659 and the “glycan array binding signal (z-score)” value [9] was 0.146. For the same binder, the “glycan array binding signal (z-score)” value [10] was 0.01, the “glycan array binding signal (z-score)” value [11] was 0.511 and the “glycan array binding signal (z-score)” value [12] was 0.791. For the same binder, the “glycan array binding signal (z-score)” value [13] was 0.349, the “glycan array binding signal (z-score)” value [14] was 2.84 and the “glycan array binding signal (z-score)” value [15] was -0.38. The “glycan array binding signal (z-score)” value [16] was 0.301, the “glycan array binding signal (z-score)” value [17] was 0.1 and the “glycan array binding signal (z-score)” value [18] was -0.012. The “glycan array binding signal (z-score)” value [19] was -0.17, the “glycan array binding signal (z-score)” value [20] was -0.322 and the “glycan array binding signal (z-score)” value [21] was 0.057. For the same binder, the “glycan array binding signal (z-score)” value [22] was 0.43, the “glycan array binding signal (z-score)” value [23] was -0.663 and the “glycan array binding signal (z-score)” value [24] was 1.04. For the same binder, the “glycan array binding signal (z-score)” value [25] was 0.347, the “glycan array binding signal (z-score)” value [26] was -0.107 and the “glycan array binding signal (z-score)” value [27] was -0.654. The “glycan array binding signal (z-score)” value [28] was -0.334, the “glycan array binding signal (z-score)” value [29] was -0.56 and the “glycan array binding signal (z-score)” value [30] was -0.798. For the same binder, the “glycan array binding signal (z-score)” value [31] was -0.457, the “glycan array binding signal (z-score)” value [32] was 0.069 and the “glycan array binding signal (z-score)” value [33] was -0.638. For the same binder, the “glycan array binding signal (z-score)” value [34] was -0.396, the “glycan array binding signal (z-score)” value [35] was 0.557 and the “glycan array binding signal (z-score)” value [36] was -0.431. The “glycan array binding signal (z-score)” value [37] was -0.688.
